The record followed here is patent US20260139049A1 (PEDIATRIC IMMUNITY AND HEALTHCARE GUANGZHOU BIOTECHNOLOGY, published 2026).

Test [1] concerns the target T1, human CLDN6 (human, UniProt P56747 1-220).
T1 construct: whole, on cells; four-transmembrane protein; also called claudin-6; HEK293T-CLDN6
T1 sequence (looked up): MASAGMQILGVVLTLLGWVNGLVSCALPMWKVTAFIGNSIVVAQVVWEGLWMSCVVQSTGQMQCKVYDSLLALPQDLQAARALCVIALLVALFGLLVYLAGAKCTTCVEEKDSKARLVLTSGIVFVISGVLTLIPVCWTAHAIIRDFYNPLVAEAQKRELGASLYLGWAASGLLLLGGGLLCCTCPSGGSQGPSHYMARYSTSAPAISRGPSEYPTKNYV
Put plainly: FACS on PA-1 tumour cells; target on the cells taken as CLDN6. Here is the method:
(§1) 50 μL of an antibody to be tested was added to a 96-well plate, then 1×10⁵ cells were added to each well, and incubation was conducted at 4° C. for 1 h. Cells were washed three times with PBS. […] Finally, cells were washed three times with PBS, and signals were read using FACS. A binding capacity of the antibody to each tumor cell was analyzed based on detection data.

In test [2] the target is T1, human CLDN6. Nature of the test: FACS on HEK293T-CLDN6 cells. Here is the method:
To detect a binding capacity of a chimeric or humanized antibody to CLDN6, a CLDN6-expressing cell line HEK293T-CLDN6 and a CLDN6-negative control cell line HEK293T were washed three times with PBS. 1×10⁵ test cells and 50 μL of an antibody solution to be tested were added to a 96-well plate, and incubated at 4° C. for 1 h. The cells were then washed three times with PBS. […] Finally, cells were washed three times with PBS, and signals were read using FACS.
An EC50 value (a concentration of an antibody that binds to half of binding sites at equilibrium) is calculated through nonlinear regression.

The target of test [3] is T1, human CLDN6. Nature of the test: FACS on HepG2 tumour cells; target on the cells taken as CLDN6. Here is the method:
as §1

B1: PiH2001 (antibody, human IgG1, kappa)
heavy: QVQLVQSGAEVKKPGASVKVSCKASGYTFTDYNMHWVRQAPGQRLEWIGYINPNNGATNYNQKFKGRATITVDTSASTAYMELSSLRSEDTAVYYCARWDGYVYYYGMDYWGQGTLVTVSS[human IgG1 constant region not spelt out]
light: DIQMTQSPSSLSASVGDRVTITCKASDHINNWLAWYQQKPGKAPKLLISGATSLETGVPSRFSGSGSGTDYTFTISSLQPEDIATYYCQQYWNTPYTFGGGTKLEIKRTVAAPSVFIFPPSDEQLKSGTASVVCLLNNFYPREAKVQWKVDNALQSGNSQESVTEQDSKDSTYSLSSTLTLSKADYEKHKVYACEVTHQGLSSPVTKSFNRGEC
notes: humanized from 54B5A7; IgG1; also called 54-VH1 + VL3
As a reminder, the EC50 is the concentration needed to bring the measured effect to its halfway point. Read a low EC50 as an effect from little substance. Consider B1, for which the values for the EC50 with human CLDN6 [1] and with human CLDN6 [2] were 0.945 µg/mL and 0.751 µg/mL, respectively.

B2: PiH2005 (antibody, human IgG1, kappa)
heavy: QVQLVQSGAEVKKPGASVKVSCKASGYTFTDYNMHWVRQAPGQRLEWIGYINPNNGATNYNQKFKGRATITVDTSASTAYMELSSLRSEDTAVYYCARWDGYVYYYGMDYWGQGTLVTVSS[human IgG1 constant region not spelt out]
light: DIQMTQSPSSLSASVGGRVTITCKASDHINNWLAWYQQKPGKAPKLLISGATSLETGVPSRFSGSGSGTDYTFTISSLQPEDIATYYCQQYWNTPYTFGGGTKLEIKRTVAAPSVFIFPPSDEQLKSGTASVVCLLNNFYPREAKVQWKVDNALQSGNSQESVTEQDSKDSTYSLSSTLTLSKADYEKHKVYACEVTHQGLSSPVTKSFNRGEC
notes: humanized from 54B5A7; IgG1; also called 54-VH1 + VL4
Turning to B2, the EC50 amounted to 1 µg/mL with human CLDN6 [1] and 0.62 µg/mL with human CLDN6 [2].

B3: PiH2008 (antibody, human IgG1, kappa)
heavy: QVQLVQSGAEVKKPGASVKVSCKASGYTFTDYNMHWVRQAPGQSLEWIGYINPNNGATNYNQKFKGRATITVDKSASTAYMELSSLRSEDTAVYNCARWDGYVYYYGMDYWGQGTLVTVSS[human IgG1 constant region not spelt out]
light: DIQMTQSPSSLSASVGGRVTITCKASDHINNWLAWYQQKPGKAPKLLISGATSLETGVPSRFSGSGSGTDYTFTISSLQPEDIATYYCQQYWNTPYTFGGGTKLEIKRTVAAPSVFIFPPSDEQLKSGTASVVCLLNNFYPREAKVQWKVDNALQSGNSQESVTEQDSKDSTYSLSSTLTLSKADYEKHKVYACEVTHQGLSSPVTKSFNRGEC
notes: humanized from 54B5A7; IgG1; also called 54-VH4 + VL4
Regarding B3, the half-maximal effective concentration (EC50) in the test with human CLDN6 [3] came to 1.69 µg/mL; with human CLDN6 [1], 0.871 µg/mL; with human CLDN6 [2] it was 0.43 µg/mL.

B4: PiH2004 (antibody, human IgG1, kappa)
heavy: QVQLVQSGAEVKKPGASVKVSCKASGYTFTDYNMHWVRQAPGQSLEWIGYINPNNGATNYNQKFKGRATITVDKSASTAYMELSSLRSEDTAVYNCARWDGYVYYYGMDYWGQGTLVTVSS[human IgG1 constant region not spelt out]
light: DIQMTQSPSSLSASVGDRVTITCKASDHINNWLAWYQQKPGKAPKLLISGATSLETGVPSRFSGSGSGTDYTFTISSLQPEDIATYYCQQYWNTPYTFGGGTKLEIKRTVAAPSVFIFPPSDEQLKSGTASVVCLLNNFYPREAKVQWKVDNALQSGNSQESVTEQDSKDSTYSLSSTLTLSKADYEKHKVYACEVTHQGLSSPVTKSFNRGEC
notes: humanized from 54B5A7; IgG1; also called 54-VH4 + VL3
Take B4: the concentration for a half-maximal effect (EC50) with human CLDN6 [3] was found to be 1.86 µg/mL; with human CLDN6 [1], 0.949 µg/mL; with human CLDN6 [2], 0.282 µg/mL.
